Ten compounds from the antibiotic and cytotoxicity screens of Wong et al. (2023) can be followed below.

SMILES strings stand for the structures. Some of the results follow.

For the first experiment, the system named is HepG2. Nature of the experiment: cytotoxicity call (relative viability < 0.9). To be noted: 10 µM.
For the compound `C[C@H]1CN([C@@H](C)CO)C(=O)c2cccc(NC(=O)Nc3ccc(C(F)(F)F)cc3)c2O[C@@H]1CN(C)C(=O)Nc1ccccc1`, the cytotoxicity call is “active”.
In the case of `COc1ccc(S(=O)(=O)N(C)C[C@H]2Oc3ccc(NS(=O)(=O)c4cn(C)cn4)cc3C(=O)N([C@@H](C)CO)C[C@H]2C)cc1`, the cytotoxicity call is “inactive”.
Consider `C[C@H](CO)N1C[C@H](C)[C@@H](CN(C)S(=O)(=O)c2ccccc2)OCCCC[C@H](C)Oc2ccc(NC(=O)C3CCCCC3)cc2C1=O`, for which the cytotoxicity call was “inactive”.

The test system of a further experiment is S. aureus RN4220. Nature of the experiment: growth inhibition call (relative growth <= 0.2). To be noted: 50 µM.
As for `COc1ccc(S(=O)(=O)Nc2ccc3c(c2)C(=O)N([C@H](C)CO)C[C@H](C)[C@@H](CN(C)C(=O)NC(C)C)O3)cc1`, the growth inhibition call was “inactive”.
For `C[C@@H]1CCCCO[C@@H](CN(C)CC2CC2)[C@@H](C)CN([C@H](C)CO)C(=O)c2cc(NS(=O)(=O)c3ccc(Cl)cc3)ccc2O1`, the growth inhibition call was “inactive”.
Still for that read-out and setting: then `CC(C)(C)Cc1ccc(OCCCC(=O)O)c(CC(C)(C)C)c1`, with “active”; and `COc1ccc(NC(=O)N(C)C[C@H]2OCCCC[C@@H](C)Oc3ccc(NS(=O)(=O)c4cccs4)cc3C(=O)N([C@@H](C)CO)C[C@@H]2C)cc1`, with “inactive”; and `C[C@H]1CN([C@@H](C)CO)C(=O)c2cc(NC(=O)Nc3ccc(C(F)(F)F)cc3)ccc2O[C@@H]1CN(C)C(=O)Nc1ccccc1`, with “inactive”.
Same read-out and setting: as for `C[C@H](CO)N1C[C@H](C)[C@@H](CN(C)Cc2ccc(-c3ccccc3)cc2)Oc2c(NS(=O)(=O)c3ccc(F)cc3)cccc2C1=O`, the entry is “inactive”.
The same measure, in the same setting: as for `C[C@H]1CCCCO[C@H](CN(C)C(=O)Nc2ccccc2)[C@@H](C)CN([C@@H](C)CO)C(=O)c2cc(NC(=O)C3CCCCC3)ccc2O1`, the entry is “inactive”.
